# Source: article PMC4336329 (PLoS ONE, 2015)
# Hit rate of the full screen: of about 310,000 compounds, about 2,200 (0.71%) showed an effect of 50% or more. Effects have a minus sign here. The list shows a part of the results.
# Target: human ether-à-go-go-related gene (hERG) potassium channel (human, UniProt Q12809)
# Test: primary screen, population patch clamp on CHO cells stably expressing hERG
# Sequence of human ether-à-go-go-related gene (hERG) potassium channel (Q12809 whole entry, looked up): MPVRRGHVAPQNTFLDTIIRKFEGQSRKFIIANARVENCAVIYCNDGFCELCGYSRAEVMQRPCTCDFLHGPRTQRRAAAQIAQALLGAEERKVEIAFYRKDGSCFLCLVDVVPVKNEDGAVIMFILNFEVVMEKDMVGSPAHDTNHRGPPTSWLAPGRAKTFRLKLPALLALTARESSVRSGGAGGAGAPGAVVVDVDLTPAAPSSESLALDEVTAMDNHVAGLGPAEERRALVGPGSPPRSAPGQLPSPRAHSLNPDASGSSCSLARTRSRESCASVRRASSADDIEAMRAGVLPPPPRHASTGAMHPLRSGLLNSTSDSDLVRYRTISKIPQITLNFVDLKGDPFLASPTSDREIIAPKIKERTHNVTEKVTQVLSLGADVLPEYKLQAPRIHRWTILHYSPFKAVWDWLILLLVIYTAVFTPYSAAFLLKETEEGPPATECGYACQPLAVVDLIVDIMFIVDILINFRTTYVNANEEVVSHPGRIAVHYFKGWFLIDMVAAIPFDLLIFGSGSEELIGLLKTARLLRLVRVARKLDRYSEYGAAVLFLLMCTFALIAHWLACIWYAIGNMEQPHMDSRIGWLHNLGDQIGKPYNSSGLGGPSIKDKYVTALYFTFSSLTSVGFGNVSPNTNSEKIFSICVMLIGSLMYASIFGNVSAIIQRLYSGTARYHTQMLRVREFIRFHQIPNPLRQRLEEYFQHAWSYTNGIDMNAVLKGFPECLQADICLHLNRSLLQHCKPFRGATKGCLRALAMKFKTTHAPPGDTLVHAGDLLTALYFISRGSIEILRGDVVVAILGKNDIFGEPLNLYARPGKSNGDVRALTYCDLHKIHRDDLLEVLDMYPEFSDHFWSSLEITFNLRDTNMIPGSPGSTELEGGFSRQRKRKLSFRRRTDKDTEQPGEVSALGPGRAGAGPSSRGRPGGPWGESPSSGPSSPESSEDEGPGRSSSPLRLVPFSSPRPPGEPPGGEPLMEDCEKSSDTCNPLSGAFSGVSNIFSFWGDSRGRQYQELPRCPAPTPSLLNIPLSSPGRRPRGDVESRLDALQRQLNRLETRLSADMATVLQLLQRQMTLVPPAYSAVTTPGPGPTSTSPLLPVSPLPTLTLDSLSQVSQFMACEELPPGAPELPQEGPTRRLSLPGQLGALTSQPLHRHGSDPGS
row,Compound,"hERG current change (%, negative = inhibition) at 1uM"
1,C=C(c1ccccc1C)[n+]1ccccc1,19.5%
2,COc1ccccc1N(CC(=O)N/N=C(\C)c1cccc(Br)c1)S(C)(=O)=O,8.77%
3,O=C(O)CCn1ccnc1-c1ccccc1,-2.73%
4,Cc1c(Cl)cccc1NC(=S)N=Nc1c(O)n(CN2CCOCC2)c2ccccc12,8.7%
5,COc1ccc(/C=N/N(c2ccccc2)c2ccccc2)cc1O,3.33%
6,COc1ccc(S(=O)(=O)NC(CC(C)C)C(=O)NC(C)c2cccs2)cc1 (centres unmarked),0.791%
7,O=C(O)c1ccc2c(=O)[nH]c(CN3CCOCC3)nc2c1,15.6%
8,O=C(Cc1cccs1)Nc1nnc(-c2ccccc2)s1,11.2%
9,O=C(N/N=C/C=C\c1ccccc1[N+](=O)[O-])c1ccco1,6.82%
10,CCOC(=O)C1=C(COC(=O)CCNS(=O)(=O)c2ccc(NC(C)=O)cc2)NC(=O)NC1C (centres unmarked),10.6%
11,COc1ccc(OC)c(NC(=O)Nc2nnc(N3CCCCC3C)s2)c1 (centres unmarked),6.99%
12,O=C(C1CCN(Cc2ccccc2)CC1)N1CCCC1,8.55%
13,NNc1cc([N+](=O)[O-])cc2c1C(=O)N(Cc1ccccc1)S2=O (centres unmarked),7.78%
14,Cn1nc(C(C)(C)C)c([N+](=O)[O-])c1C(=O)Nc1cccc2ccccc12,6.53%
15,O=C(Nc1ccc(F)c([N+](=O)[O-])c1)c1ccc2c(c1)OCCO2,14.2%
16,CC(C)(C)Cc1nnc(NS(=O)(=O)c2ccccc2)s1,14%
17,COCC(=O)N1CCC(Oc2ccc(C(=O)N[C@H](C(=O)OC)C(C)C)cc2)CC1,16.8%
18,CNc1oc(-c2ccccc2Cl)nc1P(=O)(c1ccccc1)c1ccccc1,3.1%
19,CC(Cc1ccccc1)NC(=O)CSc1nc2nc3c(cc2c(=O)n1-c1ccccc1)COC(C)(C)C3 (centres unmarked),0.807%
20,COc1ccc2c(C(=O)c3ccc(C)cc3)n(CCCC(N)=O)[n+]([O-])c2c1,-8.73%
21,COc1ccc(C(=O)COC(=O)CCCN=C2NS(=O)(=O)c3ccccc32)c(OC)c1,-0.594%
22,O=C1CCC(C(=O)OCC(=O)c2c[nH]c3ccccc23)=NN1,-2.13%

row,Compound,"hERG current change (%, negative = inhibition) at 1uM"
1,Cc1ccccc1N1C(=O)C2ON(c3ccccc3)C(c3cccnc3)C2C1=O (centres unmarked),9.69%
2,Cc1ccccc1NC(=O)C1CCN(c2cnccn2)CC1,-11.7%
3,CCc1nnc(NC(=O)CCC(=O)N2CCN(C3c4ccccc4-c4ccccc43)CC2)s1,9.13%
4,Cc1nc(NC(=O)C2CCCC2)sc1Cc1ccc2c(c1)OCO2,0.228%
5,Brc1ccc(-c2noc(COc3ccc4ccccc4c3)n2)o1,0.61%
6,COc1ccc(CNC(=O)c2cc(C3CC3)nc3c2cnn3C(C)C)cc1OC,1.46%
7,O=C(Nc1ccc(S(=O)(=O)Nc2ncccn2)cc1)c1ccco1,8.24%
8,C[n+]1cccc(C(=O)Nc2ccccc2)c1.[Cl-],15.4%
9,O=C(NCc1cccs1)C1CC(=O)N(c2ccc(Cl)cc2)C1 (centres unmarked),-11%
10,Cc1cc(C2=NNC(=NC3CC3)SC2)c(C)n1-c1c(C)n(C)n(-c2ccccc2)c1=O.Cl,2.13%
11,O=C(Nc1ccc2nccnc2c1)Nc1ccccc1Cl,10.3%
12,O=C(CSc1nnnn1-c1ccc(Cl)cc1)N1CCc2ccccc2C1,-1.89%
13,Cc1ccc(-c2c(C#N)c(N)nc3c2CCCCCC3)o1,11.9%
14,O=C(NCCc1ccc(C(F)(F)F)cc1)C1COc2ccccc2O1 (centres unmarked),13%
15,COC(=O)CC(c1ccc(C#N)cc1)n1c(C)ccc1C (centres unmarked),1.2%
16,Cc1ccc(C(=O)Nc2ccc(Nc3ccccc3)cc2)cc1Br,5.29%
17,COc1ccc(C)cc1NC(=O)Nc1cccc(C)c1,2.98%
18,COc1ccc(NC(=O)c2ccccc2Cl)cc1NC(=O)CN1CCOCC1,9.66%
19,O=C(COc1ccc(Cl)cc1)N1CCN(c2ccc([N+](=O)[O-])c(N3CCCCC3)c2)CC1,12.1%
20,Cc1ccc(C(=O)NC(=S)Nc2ccc(S(=O)(=O)N3CCN(C)CC3)cc2)cc1,17.3%
21,O=C1CC(/C=C/c2ccncc2)=Nc2ccccc2N1,1.92%
22,C#CCNC(=O)C1=C[C@@H](c2ccc(C(F)(F)F)cc2)[C@H](CCCO)[C@@H](OCC)O1,2.03%
